# Test results taken from the supplement of paper PMC3334620.
# The full ranking holds about 33,000 sequences; the median of “E-score (-0.5 to 0.5)” is about -0.017, and the highest 2% start at about 0.3. This is one part of the list.
# Target: T1, Sut1 (UniProt P53032)
# T1 sequence: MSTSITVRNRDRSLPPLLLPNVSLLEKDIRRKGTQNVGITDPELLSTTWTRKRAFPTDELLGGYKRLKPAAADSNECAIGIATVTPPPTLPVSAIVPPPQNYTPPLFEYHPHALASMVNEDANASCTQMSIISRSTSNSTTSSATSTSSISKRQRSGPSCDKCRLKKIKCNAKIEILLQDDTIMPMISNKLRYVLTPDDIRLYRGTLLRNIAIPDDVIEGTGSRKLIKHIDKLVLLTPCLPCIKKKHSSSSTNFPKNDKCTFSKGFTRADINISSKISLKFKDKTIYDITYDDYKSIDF
# Assay: PBM E-score (8-mer binding enrichment) (E-score (-0.5 to 0.5)); higher = stronger / more preferred TF binding; most listed sequences are background and not binding sites
# Conditions: protein concentration: 200 nM; construct: GST-full length
# How it was run: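 Yeast transcription factors carrying a GST tag, as full-length proteins or DNA-binding domains, were produced by PURExpress in vitro transcription/translation. About 100-200 nM protein was applied to universal all-10-mer Agilent arrays, double-stranded by primer extension on fresh or once-stripped slides. Bound protein was detected with fluorescent anti-GST, and scans were normalised with masliner. The Universal PBM Analysis Suite gave each ungapped eight-base word, pooled with its reverse complement, an E-score, a modified Wilcoxon-Mann-Whitney statistic.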
row,Sequence,PBM E-score
1,AGGTTATC,0.0484
2,CCGTCCAC,0.0551
3,TCCTGAAA,-0.0671
4,GTGGCGCA,-0.22
5,CTACGATA,0.0794
6,AAAAATGA,0.0571
7,CAACAAGG,-0.00711
8,CTGTGCAC,-0.277
9,AATGGGCA,0.0236
10,CAACTATC,-0.146
11,GCCACAGA,-0.172
12,CGAAACCG,-0.00738
13,GGTGGCAC,-0.235
14,CTCCATCA,-0.0323
15,GCCGTTAC,-0.0101
16,ATAAGGAG,0.0629
17,CTCCTGTC,0.0458
18,TCGCGAGA,0.028
19,AGCTACGG,-0.144
20,CCACCCAA,-0.0338
21,GACGATGC,-0.189
22,AATAACGG,0.17
23,GCAACACC,0.00403
24,AGTCAAGC,-0.299
25,ACGCGCCA,-0.231

row,Sequence,PBM E-score
1,CGATGGTA,-0.0389
2,ATTTTTAA,0.249
3,CAAAGGAC,-0.235
4,ACGAACGT,-0.00531
5,CATAGACG,0.014
6,AGGCCGGA,0.279
7,GATACACC,0.14
8,CGGAAACA,0.236
9,GAAGTCTC,-0.126
10,CAATAATC,0.0927
11,AAAGGAGG,-0.105
12,CGAGGGCC,-0.113
13,ATGATCAT,0.0203
14,CGTAAACC,-0.153
15,TGAGGTAA,0.0544
16,ATGGGGTC,-0.127
17,GCGCGAGA,0.00138
18,CTTCTTTC,0.0488
19,TAGACCTA,-0.088
20,CGTCAAGA,-0.239
21,CTCGGATA,0.126
22,GCTTAAGC,-0.0407
23,ATCGCAAT,0.0798
24,CCTCTCGC,-0.157
25,TAATATTA,0.313

row,Sequence,PBM E-score
1,CGGCGCAA,-0.0845
2,CCACATAA,-0.159
3,ACGTCACT,-0.0239
4,AGCATAGA,-0.0956
5,ATGCCCGA,-0.173
6,GATTTGGC,-0.189
7,CTCACTTC,-0.141
8,CCCATTTA,-0.0267
9,CGACGATC,-0.0217
10,CACAAGCC,-0.125
11,AACAGTGT,-0.129
12,AGCCACAT,0.00792
13,CGCGACAA,0.0933
14,ATTCTCAC,0.117
15,ACGCCGTG,-0.102
16,ACTGTAAT,0.0264
17,GTACAGGA,-0.0133
18,ATCTACTC,0.235
19,CTAGAGCA,-0.189
20,GCTATGCA,-0.271
21,AGTGGAGG,-0.123
22,ACATGCGG,-0.0523
23,ATCGGAGG,0.0998
24,AGAGACGC,-0.098
25,CGGTTGAA,0.0439

row,Sequence,PBM E-score
1,AAGAGCCG,0.0308
2,GGGCACGA,-0.146
3,CGGTCCAC,-0.219
4,GCCCCGGC,-0.132
5,AGCTACTA,0.107
6,CACTTGAC,-0.05
7,GACTTATC,-0.0236
8,TAGAATGA,0.0776
9,GTACTACA,0.161
10,ACTTTTTG,-0.00642
11,ACCAGTCC,-0.0976
12,CATGTTAA,0.132
13,GAGGAATA,0.00482
14,ATTAGGCC,0.0267
15,ATCCCGAG,-0.0219
16,GGGCGACA,-0.287
17,AATCATCG,0.124
18,GCCGCGAC,-0.189
19,AGAGAGAT,0.0383
20,CCGCTTCA,-0.0538
21,ATGGGTTA,0.0789
22,GGCCCGAA,-0.0545
23,GGTCCAAA,-0.168
24,ATTTTAGA,0.154
25,AGACCCAC,-0.094

row,Sequence,PBM E-score
1,CAGACTTC,-0.161
2,AGGAGGTA,-0.0313
3,AGCACGCC,-0.0599
4,GCAGACAA,-0.0189
5,ATCTGCAA,-0.183
6,ACTCAGCT,-0.0442
7,CCGACTGC,-0.0745
8,AGGAACGA,-0.214
9,ACTCTCGC,0.0302
10,ACCGCGCT,-0.0265
11,ACTGCGGA,0.166
12,CGCGAAGA,0.0395
13,ACTTTTAA,0.103
14,CCACGAGC,0.0588
15,AGTTTCCC,-0.011
16,GATCGGGC,-0.0436
17,AGATATGG,0.0624
18,CCCTGAAA,-0.181
19,CCTGTAAA,-0.0447
20,AAAGCCAA,0.118
21,GATCCTAA,-0.209
22,ATCTTTGG,0.00476
23,CCAGAGGG,-0.215
24,ATTCGAGG,-0.266
25,CTCAACAA,0.115

row,Sequence,PBM E-score
1,GAATCGTC,-0.00672
2,GGCAGAAC,-0.146
3,CGGTTGGC,0.0506
4,CTTGGTAA,0.0229
5,ATATTACA,0.268
6,GACATCCC,-0.0101
7,AGTCTAGC,0.0641
8,AATATAAA,0.315
9,GCGCTTGA,0.0596
10,AAACCTGA,-0.00998
11,ACTGAAGG,-0.0334
12,CAGTGCAG,-0.166
13,CGTAGCCA,-0.235
14,ACGCACGC,0.168
15,CTAGGTGA,-0.168
16,AGCCACGG,-0.0398
17,AACCATGG,-0.0967
18,ATGGTAAT,0.0919
19,AGATCGTA,-0.0816
20,ATGTACAT,0.174
21,TTGGACAA,0.00395
22,CGTACCAG,-0.0344
23,AGCCGTCA,-0.0573
24,CCAGCGAG,-0.137
25,GCTTGTCC,-0.0586

row,Sequence,PBM E-score
1,ACCAGCCT,-0.198
2,ATCAATTC,0.135
3,GTTAAAAA,0.167
4,CCCGCTTC,-0.0598
5,CTTGGAAA,0.0947
6,AACCCACT,0.0981
7,GGGGGTGA,-0.178
8,CACCGGGC,-0.0153
9,AGGAGGAT,-0.208
10,AAGCCTAC,-0.0895
11,TGTCCAAA,0.124
12,ATTCCGTC,0.143
13,AAGACCTT,-0.0567
14,GTGTCCGA,0.149
15,GTTGCGCA,-0.226
16,AGCAAGCG,-0.183
17,GGGGACAC,-0.142
18,CTTAGTGC,-0.0466
19,CCTTGGAC,-0.141
20,CCATGTCA,-0.242
21,GGCAGCCC,-0.175
22,GAAGGCAC,-0.0462
